Laboratory results reported in the supplement of paper PMC12217912.
Some of the results follow. The full chains were built here from the parent and the listed change. Values near 0.05 are background.

B1: TEV protease; numbered along this chain (parent)
chain: MGESLFKGPRDYNPISSSICHLTNESDGHTTSLYGIGFGPFIITNKHLFRRNNGTLVVQSLHGVFKVKDTTTLQQHLVDGRDMIIIRMPKDFPPFPQKLKFREPQREERICLVTTNFQTKSMSSMVSDTSCTFPSGDGIFWKHWIQTKDGQCGSPLVSTRDGFIVGIHSASNFTNTNNYFTSVPKNFMELLTNQEAQQWVSGWRLNADSVLWGGHKVFMVKPEEPFQPVKEATQL

Variants of: B1
Experiment: raw area under fraction-flipped curve 0-4 h after induction (AUC4h, not background-subtracted), DNA-recorder readout of cleavage of the substrate (dimensionless); higher = more cleavage of the substrate by the protease variant
Details: temperature: 34 °C; time window: 0-4 h after rhamnose induction
Procedure: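 In vivo DNA recorder in E. coli TOP10(DE3) ΔrhaA at 34 °C. Each TEVp single-site mutant (parent TEVp 0) is paired with a single-site variant of the 7-mer TEVs (canonical ENLYFQ|S). The substrate sits between flexible linkers in a Bxb1-sfGFP-TEVs-SsrA fusion, so cleavage stabilises Bxb1 and speeds flipping of a recombination array, read by NGS. The value is the raw area under the fraction-flipped curve over 0-4 h after rhamnose induction (AUC4h), with ≥20 reads per time point. It is not background-subtracted; inactive controls average about 0.047.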
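Further: Bxb1 expression induced with 0.2% (w/v) L-rhamnose at OD600 near 0.5, cultures sampled hourly, flipped fraction per protease–substrate barcode pair counted by paired-end Illumina sequencing.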

Variant	area with substrate EALYFQS	area with substrate EHLYFQS	area with substrate EKLYFQS	area with substrate EMLYFQS	area with substrate EQLYFQS	area with substrate ERLYFQS	area with substrate ESLYFQS	area with substrate EVLYFQS	area with substrate EGLYFQS	area with substrate ELLYFQS
MGESLFKGPRDYNPISSSICHLTNESDGHTTSLYGIGFGPFIITNKHLFRRNNGTLVVQSLHGVFKVKDTTTLQQHLVDGRDMIIIRMPKDFPPFPQKLKFREPQREEKICLVTTNFQTKSMSSMVSDTSCTFPSGDGIFWKHWIQTKDGQCGSPLVSTRDGFIVGIHSASNFTNTNNYFTSVPKNFMELLTNQEAQQWVSGWRLNADSVLWGGHKVFMVKPEEPFQPVKEATQL [R109K]	0.115	0.107	0.103	0.0964	0.0926	0.116	0.051	0.0768	–	–
MGESLFKGPRDYNPISSSICHLTNESDGHTTSLYGIGFGPFIITNKHLFRRNNGTLVVQSLHGVFKVKDTTTLQQHLVDGRDMIIIRMPKDFPPFPQKLKFREPQREEYICLVTTNFQTKSMSSMVSDTSCTFPSGDGIFWKHWIQTKDGQCGSPLVSTRDGFIVGIHSASNFTNTNNYFTSVPKNFMELLTNQEAQQWVSGWRLNADSVLWGGHKVFMVKPEEPFQPVKEATQL [R109Y]	0.107	0.123	–	0.108	–	0.111	–	–	0.0671	0.119
MGESLFKGPRDYNPISSSICHLTNESDGHTTSLYGIGFGPFIITNKHLFRRNNGTLVVQSLHGVFKVKDTTTLQQHLVDGRDMIIIRMPKDFPPFPQKLKFREPQREERICLVTTNFQTKSMSSMVSTTSCTFPSGDGIFWKHWIQTKDGQCGSPLVSTRDGFIVGIHSASNFTNTNNYFTSVPKNFMELLTNQEAQQWVSGWRLNADSVLWGGHKVFMVKPEEPFQPVKEATQL [D128T]	0.129	–	0.105	–	0.162	–	0.127	–	–	–
MGESLFKGPRDYNPISSSICHLTNESDGHTTSLYGIGFGPFIITNKHLFRRNNGTLVVQSLHGVFKVKDTTTLQQHLVDGRDMIIIRMPKDFPPFPQKLKFREPQREERICLVTTNFQTKSMSSMVSDTSPTFPSGDGIFWKHWIQTKDGQCGSPLVSTRDGFIVGIHSASNFTNTNNYFTSVPKNFMELLTNQEAQQWVSGWRLNADSVLWGGHKVFMVKPEEPFQPVKEATQL [C131P]	0.117	–	–	–	–	–	0.154	0.11	–	–
MGESLFKGPRDYNPISSSICHLTNESDGHTTSLYGIGFGPFIITNKHLFRRNNGTLVVQSLHGVFKVKDTTTLQQHLVDGRDMIIIRMPKDFPPFPQKLKFREPQREERICLVTTNFQTKSMSYMVSDTSCTFPSGDGIFWKHWIQTKDGQCGSPLVSTRDGFIVGIHSASNFTNTNNYFTSVPKNFMELLTNQEAQQWVSGWRLNADSVLWGGHKVFMVKPEEPFQPVKEATQL [S124Y]	0.138	–	–	–	–	–	0.112	0.0962	0.0912	–
MGESLFKGPRDYNPISSSICHLTNESDGHTTSLYGIGFGPFIITNKHLFRRNNGTLVVQSLHGVFKVKDTTTLQQHLVDGRDMIIIRMPKDFPPFPQKLKFREPQREERICLVTTNFQTKSMSCMVSDTSCTFPSGDGIFWKHWIQTKDGQCGSPLVSTRDGFIVGIHSASNFTNTNNYFTSVPKNFMELLTNQEAQQWVSGWRLNADSVLWGGHKVFMVKPEEPFQPVKEATQL [S124C]	0.101	0.117	0.0888	0.103	–	–	0.0904	0.102	0.0937	0.0763
MGESLFKGPRDYNPISSSICHLTNESDGHTTSLYGIGFGPFIITNKHLFRRNNGTLVVQSLHGVFKVKDTTTLQQHLVDGRDMIIIRMPKDFPPFPQKLKFREPQREERICLVTTNFQTKSMSSMVSDTSCTFPSGAGIFWKHWIQTKDGQCGSPLVSTRDGFIVGIHSASNFTNTNNYFTSVPKNFMELLTNQEAQQWVSGWRLNADSVLWGGHKVFMVKPEEPFQPVKEATQL [D137A]	0.0958	–	0.088	0.0934	–	–	–	–	0.081	–
MGESLFKGPRDYNPISSSICHLTNESDGHTTSLYGIGFGPFIITNKHLFRRNNGTLVVQSLHGVFKVKDTTTLQQHLVDGRDMIIIRMPKDFPPFPQKLKFREPQREERICLVTTNFCTKSMSSMVSDTSCTFPSGDGIFWKHWIQTKDGQCGSPLVSTRDGFIVGIHSASNFTNTNNYFTSVPKNFMELLTNQEAQQWVSGWRLNADSVLWGGHKVFMVKPEEPFQPVKEATQL [Q118C]	0.115	–	–	0.117	–	–	0.0868	–	–	0.11
MGESLFKGPRDYNPISSSICHLTNESDGHTTSLYGIGFGPFIITNKHLFRRNNGTLVVQSLHGVFKVKDTTTLQQHLVDGRDMIIIRMPKDFPPFPQKLKFEEPQREERICLVTTNFQTKSMSSMVSDTSCTFPSGDGIFWKHWIQTKDGQCGSPLVSTRDGFIVGIHSASNFTNTNNYFTSVPKNFMELLTNQEAQQWVSGWRLNADSVLWGGHKVFMVKPEEPFQPVKEATQL [R102E]	0.0487	0.0551	–	–	0.0605	–	0.0535	0.0418	0.0482	–
MGESLFKGPRDYNPISSSICHLTNESDGHTTSLYGIGFGPFIITNKHLFRRNNGTLVVQSLHGVFKVKDTTTLQQHLVDGRDMIIIRMPKDFPPFPQKLKFREPQREERICLYTTNFQTKSMSSMVSDTSCTFPSGDGIFWKHWIQTKDGQCGSPLVSTRDGFIVGIHSASNFTNTNNYFTSVPKNFMELLTNQEAQQWVSGWRLNADSVLWGGHKVFMVKPEEPFQPVKEATQL [V113Y]	0.119	0.0841	0.0813	0.0939	–	0.0774	0.086	0.109	0.0893	–
MGESLFKGPRDYNPISSSICHLTNESDGHTTSLYGIGFGPFIITNKHLFRRNNGTLVVQSLHGVFKVKDTTTLQQHLVDGRDMIIIRMPKDFPPFPQKLKFREPQREERICLVTTNPQTKSMSSMVSDTSCTFPSGDGIFWKHWIQTKDGQCGSPLVSTRDGFIVGIHSASNFTNTNNYFTSVPKNFMELLTNQEAQQWVSGWRLNADSVLWGGHKVFMVKPEEPFQPVKEATQL [F117P]	0.0981	0.111	0.115	0.109	0.143	0.117	0.0931	0.0598	–	–

Same assay, conditions: temperature: 34 °C; time window: 0-4 h after rhamnose induction

Variant	area with substrate EWLYFQS	area with substrate EDLYFQS	area with substrate EYLYFQS	area with substrate EPLYFQS	area with substrate EFLYFQS	area with substrate ETLYFQS	area with substrate EELYFQS	area with substrate EILYFQS
MGESLFKGPRDYNPISSSICHLTNESDGHTTSLYGIGFGPFIITNKHLFRRNNGTLVVQSLHGVFKVKDTTTLQQHLVDGRDMIIIRMPKDFPPFPQKLKFREPQREEYICLVTTNFQTKSMSSMVSDTSCTFPSGDGIFWKHWIQTKDGQCGSPLVSTRDGFIVGIHSASNFTNTNNYFTSVPKNFMELLTNQEAQQWVSGWRLNADSVLWGGHKVFMVKPEEPFQPVKEATQL [R109Y]	0.0951	–	–	–	–	–	–	–
MGESLFKGPRDYNPISSSICHLTNESDGHTTSLYGIGFGPFIITNKHLFRRNNGTLVVQSLHGVFKVKDTTTLQQHLVDGRDMIIIRMPKDFPPFPQKLKFREPQREERICLVTTNFQTKSMSSMVSTTSCTFPSGDGIFWKHWIQTKDGQCGSPLVSTRDGFIVGIHSASNFTNTNNYFTSVPKNFMELLTNQEAQQWVSGWRLNADSVLWGGHKVFMVKPEEPFQPVKEATQL [D128T]	0.116	0.148	0.127	–	–	–	–	–
MGESLFKGPRDYNPISSSICHLTNESDGHTTSLYGIGFGPFIITNKHLFRRNNGTLVVQSLHGVFKVKDTTTLQQHLVDGRDMIIIRMPKDFPPFPQKLKFREPQREERICLVTTNFQTKSMSYMVSDTSCTFPSGDGIFWKHWIQTKDGQCGSPLVSTRDGFIVGIHSASNFTNTNNYFTSVPKNFMELLTNQEAQQWVSGWRLNADSVLWGGHKVFMVKPEEPFQPVKEATQL [S124Y]	–	0.124	–	0.158	–	–	–	–
MGESLFKGPRDYNPISSSICHLTNESDGHTTSLYGIGFGPFIITNKHLFRRNNGTLVVQSLHGVFKVKDTTTLQQHLVDGRDMIIIRMPKDFPPFPQKLKFREPQREERICLVTTNFQTKSMSCMVSDTSCTFPSGDGIFWKHWIQTKDGQCGSPLVSTRDGFIVGIHSASNFTNTNNYFTSVPKNFMELLTNQEAQQWVSGWRLNADSVLWGGHKVFMVKPEEPFQPVKEATQL [S124C]	–	–	0.0848	–	0.1	–	–	–
MGESLFKGPRDYNPISSSICHLTNESDGHTTSLYGIGFGPFIITNKHLFRRNNGTLVVQSLHGVFKVKDTTTLQQHLVDGRDMIIIRMPKDFPPFPQKLKFREPQREERICLVTTNFQTKSMSSMVSDTSCTFPSGAGIFWKHWIQTKDGQCGSPLVSTRDGFIVGIHSASNFTNTNNYFTSVPKNFMELLTNQEAQQWVSGWRLNADSVLWGGHKVFMVKPEEPFQPVKEATQL [D137A]	–	0.119	0.0995	–	–	–	–	–
MGESLFKGPRDYNPISSSICHLTNESDGHTTSLYGIGFGPFIITNKHLFRRNNGTLVVQSLHGVFKVKDTTTLQQHLVDGRDMIIIRMPKDFPPFPQKLKFREPQREERICLVTTNFCTKSMSSMVSDTSCTFPSGDGIFWKHWIQTKDGQCGSPLVSTRDGFIVGIHSASNFTNTNNYFTSVPKNFMELLTNQEAQQWVSGWRLNADSVLWGGHKVFMVKPEEPFQPVKEATQL [Q118C]	0.0942	–	–	–	–	0.127	–	–
MGESLFKGPRDYNPISSSICHLTNESDGHTTSLYGIGFGPFIITNKHLFRRNNGTLVVQSLHGVFKVKDTTTLQQHLVDGRDMIIIRMPKDFPPFPQKLKFEEPQREERICLVTTNFQTKSMSSMVSDTSCTFPSGDGIFWKHWIQTKDGQCGSPLVSTRDGFIVGIHSASNFTNTNNYFTSVPKNFMELLTNQEAQQWVSGWRLNADSVLWGGHKVFMVKPEEPFQPVKEATQL [R102E]	–	–	–	–	–	0.059	0.0626	–
MGESLFKGPRDYNPISSSICHLTNESDGHTTSLYGIGFGPFIITNKHLFRRNNGTLVVQSLHGVFKVKDTTTLQQHLVDGRDMIIIRMPKDFPPFPQKLKFREPQREERICLYTTNFQTKSMSSMVSDTSCTFPSGDGIFWKHWIQTKDGQCGSPLVSTRDGFIVGIHSASNFTNTNNYFTSVPKNFMELLTNQEAQQWVSGWRLNADSVLWGGHKVFMVKPEEPFQPVKEATQL [V113Y]	0.0399	0.134	–	–	–	–	0.124	0.0878
MGESLFKGPRDYNPISSSICHLTNESDGHTTSLYGIGFGPFIITNKHLFRRNNGTLVVQSLHGVFKVKDTTTLQQHLVDGRDMIIIRMPKDFPPFPQKLKFREPQREERICLVTTNPQTKSMSSMVSDTSCTFPSGDGIFWKHWIQTKDGQCGSPLVSTRDGFIVGIHSASNFTNTNNYFTSVPKNFMELLTNQEAQQWVSGWRLNADSVLWGGHKVFMVKPEEPFQPVKEATQL [F117P]	–	–	–	0.115	–	0.11	0.168	0.0998
